# Source: publication PMC6212790
# The other results are listed elsewhere or left out. At the low end of the ranking, values are background and their order means little.
# Target: T1, GST-Rok (full length) (UniProt O34857)
# T1 sequence: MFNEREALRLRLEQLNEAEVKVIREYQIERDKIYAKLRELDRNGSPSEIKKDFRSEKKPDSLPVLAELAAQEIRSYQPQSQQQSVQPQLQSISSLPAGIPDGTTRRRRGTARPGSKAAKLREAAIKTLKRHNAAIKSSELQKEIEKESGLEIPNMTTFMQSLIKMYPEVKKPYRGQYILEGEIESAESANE
# Assay: protein binding microarray;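 further: rank score from −0.5 (least bound) to 0.5 (best bound)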
# Settings: Rok is a gene silencer of Bacillus subtilis; high values mean tight binding; most listed sequences are background and not binding sites; double strand, one strand shown
row,Sequence,binding signal [E-score]
1,ATCGTTCG,0.0858
2,GCAATAAC,0.0651
3,GCAGCGAC,-0.141
4,AAACTCTC,0.106
5,AACCGAAA,-0.029
6,CTTCGGCA,-0.316
7,CAGACAAG,-0.0886
8,CAGGGAGG,-0.376
9,ATGAAGGG,-0.149
10,GAGTACGC,-0.0824
11,TAGATTCA,0.304
12,CAAGGTAC,-0.0664
13,TAACGGAA,0.23
14,ATAACGGA,0.0421
15,ATCATAGC,0.195
16,ATCCGTAA,-0.114
17,CAAAAACA,0.183
18,CGTGACAA,-0.11
19,CAGTTACC,0.135
20,GGGGACTA,-0.22
21,ACTGAAGA,-0.00572
22,CTGAAAAG,-0.0901
23,AGGGAGCG,-0.389
24,AGTCCTTC,-0.205
25,AACAGCCC,-0.273

row,Sequence,binding signal [E-score]
1,CTAGTTTC,0.413
2,CAGGGTGA,-0.203
3,GCGCTCCA,-0.264
4,AGGCATCC,-0.215
5,ATTTGGGC,0.0192
6,CCAGTCTC,-0.19
7,GGGTCTCA,-0.249
8,AAATAGTG,0.231
9,ACTGATGG,-0.0587
10,GAGTAGGC,0.0627
11,AATCAAGA,0.0241
12,CGTACTCC,-0.121
13,GGTGGTCA,-0.204
14,CAAACAGC,-0.228
15,GCGGGGTA,-0.135
16,CGTAGCCC,-0.179
17,TGCCCCCA,-0.349
18,CGGCGTAA,0.0553
19,CCCTCGTC,-0.278
20,ACGTTGGC,-0.214
21,CACGAAAC,0.0723
22,CAATACCG,0.069
23,CAGGATGG,-0.143
24,CATCTCCC,-0.298
25,CTCTGCTA,-0.0503

row,Sequence,binding signal [E-score]
1,ATGCCGCG,-0.126
2,CAATTTGG,-0.0306
3,CGCGCTAA,0.304
4,ATAAGATG,0.0864
5,AAGGAACA,-0.0856
6,ACACTATG,0.182
7,ACCCATAC,0.0817
8,AATATGGG,0.0683
9,CCCGGGAG,-0.364
10,CAAATTCG,0.0126
11,ACTAAAAA,0.21
12,CCACGTCC,-0.344
13,CTTCTAGA,-0.0745
14,CACCGTGG,-0.306
15,CATCACGC,-0.199
16,AGATCCCG,0.0932
17,ACAAAATG,0.143
18,ATCAGTGG,0.0163
19,CTCTGCCC,-0.365
20,AACACCCT,-0.115
21,CCCTTGCC,-0.351
22,ACCCTGTA,-0.122
23,AACCCGAC,-0.181
24,AGTGTCGA,0.00605
25,ACTATAGC,0.164

row,Sequence,binding signal [E-score]
1,AAGGGAAT,-0.0234
2,ACCTGATA,0.0403
3,TAACTAAA,0.151
4,GACCTCAA,-0.307
5,GTCTGCAA,-0.191
6,ACGGGCCG,-0.373
7,ATGTGGAC,0.109
8,CATACACA,0.135
9,AAAGATGG,-0.0262
10,GAATGCTA,0.134
11,CCTAAAAA,0.0837
12,AGCCTTAA,-0.038
13,AGCAAACG,-0.0198
14,CCGTTAGC,-0.185
15,GACAATCC,-0.00593
16,GATGTAAA,0.159
17,GATGGCAC,-0.108
18,ACATACCA,0.278
19,GAGGAAAA,-0.155
20,AATCAGAC,0.141
21,CCTATGCG,-0.164
22,ACTTAAGC,0.0123
23,ACTCAGCA,-0.0531
24,GTTAGTCA,0.166
25,ACATCCCG,-0.148

row,Sequence,binding signal [E-score]
1,CCAACTTA,0.0981
2,CTTCATTC,-0.0758
3,AGGGATGG,-0.127
4,CAGCAAGC,-0.114
5,CACGATCA,-0.0973
6,GGCATAAC,-0.0658
7,CCCATCGA,-0.0661
8,GATTGCGC,-0.11
9,CAGAAGAA,0.0939
10,CATCTCAG,-0.0582
11,CGCATTAC,0.132
12,GGTGGCGA,-0.11
13,GGCACTTA,-0.128
14,GCCTGAAC,-0.267
15,AGGCCTAT,-0.0946
16,CAATTGAC,0.0882
17,ATATCGTG,0.177
18,CATGGGAA,-0.139
19,ACCCCCAC,-0.357
20,AGACAACG,-0.0674
21,ACAGGGGA,-0.28
22,ATCCCTAG,-0.0349
23,TGGCAGAA,-0.00675
24,ATGGCGGC,-0.327
25,CGGGGCCC,-0.367

row,Sequence,binding signal [E-score]
1,ACGCCTCG,-0.227
2,ACTGGAGC,-0.126
3,CGAGTACC,-0.148
4,CCGTCGCA,-0.223
5,AGAGCCAA,-0.183
6,CACAGGAC,-0.122
7,CTCCCGGC,-0.294
8,ATAGATGG,0.159
9,CCCGCGGA,-0.214
10,ACACTAGA,0.197
11,CAAGAGTG,0.107
12,GCAGTCGC,-0.196
13,GCCCGTAC,-0.26
14,AGGGCCAG,-0.296
15,ACACTGCC,-0.244
16,ATAACATC,0.083
17,TGCATACA,-0.0253
18,CATCCCTA,0.0782
19,CTCCATAC,0.166
20,GCGGAAGC,-0.0301
21,GCCCGAGC,-0.27
22,TAGCCAGA,-0.215
23,GCAGCGAA,-0.0124
24,GCGGTCGA,-0.134
25,GTCTTACA,-0.104

row,Sequence,binding signal [E-score]
1,CACGTCGC,-0.149
2,ATATTCAT,0.319
3,GAATCAAA,0.15
4,AACACGGT,-0.0677
5,CGGTCGGC,-0.288
6,AGTGTTCA,-0.102
7,GAGAGAAA,0.0897
8,ATAAGGCC,-0.00866
9,CGGCATAC,-0.0136
10,GACCCCCC,-0.471
11,AGTGATAG,0.377
12,ACGCGGGA,-0.212
13,ACGTGAAG,0.0636
14,AACCGTGA,0.0598
15,AGCCAGGG,-0.218
16,AGATAGAT,0.386
17,CAATTACA,0.189
18,GACTTGAA,0.144
19,ACGACAGG,-0.0817
20,AGCTCCAT,0.0419
21,ATCATATG,0.226
22,GCTGCAGA,0.0247
